These are yes or no findings as the source states them, for the method shown. Binding seen in cells or lysates may run through a third protein. Some results given as binding are weak or reduced against the parent protein; the word gives no strength. Sequences can lack the tags named with a protein.
T1: GST-Tea4 (S. pombe) (UniProt O60132)
T1 sequence: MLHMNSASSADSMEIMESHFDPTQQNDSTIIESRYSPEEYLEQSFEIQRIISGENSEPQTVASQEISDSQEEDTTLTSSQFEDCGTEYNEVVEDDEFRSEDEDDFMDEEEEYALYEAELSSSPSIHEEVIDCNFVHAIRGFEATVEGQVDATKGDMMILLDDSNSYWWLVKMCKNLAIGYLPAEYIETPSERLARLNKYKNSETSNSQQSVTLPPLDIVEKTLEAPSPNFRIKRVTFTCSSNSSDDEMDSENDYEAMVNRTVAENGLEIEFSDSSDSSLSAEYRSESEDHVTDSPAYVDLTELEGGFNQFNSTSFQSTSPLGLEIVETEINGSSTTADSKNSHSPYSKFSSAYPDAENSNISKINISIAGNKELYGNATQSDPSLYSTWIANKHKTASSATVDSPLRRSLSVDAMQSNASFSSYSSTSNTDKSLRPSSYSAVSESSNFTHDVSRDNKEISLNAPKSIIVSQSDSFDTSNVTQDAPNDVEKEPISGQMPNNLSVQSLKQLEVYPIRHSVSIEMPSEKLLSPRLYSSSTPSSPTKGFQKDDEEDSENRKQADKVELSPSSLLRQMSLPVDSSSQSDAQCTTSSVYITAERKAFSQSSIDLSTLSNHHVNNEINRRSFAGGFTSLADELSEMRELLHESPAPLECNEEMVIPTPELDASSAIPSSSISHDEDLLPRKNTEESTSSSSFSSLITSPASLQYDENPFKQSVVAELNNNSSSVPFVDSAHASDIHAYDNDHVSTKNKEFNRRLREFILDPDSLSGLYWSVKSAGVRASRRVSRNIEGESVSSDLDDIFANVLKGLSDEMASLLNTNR


Molecular target: T1, GST-Tea4 (S. pombe)
Test: pull-down; 2 to 10 μg GST-tagged protein purified from E. coli and coupled to GS beads, incubated 2 h with S. pombe cell extracts (2 to 3 mg total protein; 50 mM Tris-HCl pH 7.5, 20 mM NaCl, 0.5% NP-40, 10% glycerol); blotted with anti-HA or anti-GFP; GS beads alone as control; only the target purified

binding | Binder
binds | Rgf1-GFP (protein, UniProt Q9Y7U6 1-1334) MDYRHPNALGVNESSRAYEEIFGAPRKREPARTVSTPAFMEPAPVSKKPLPPPTRRLPRKPLPFRSTSLQPPSSQPPAPPTHQREASPVKNIEHSESFPSVFGTSNNHQIVPLTLKDGNDFGALYASLNTTPHFPQVSNHAPNNSNSPSLTWHTSSGDDSNQNPFFVRRQSQSSTSPVSDSVDENLLSAVSSVTESVETNLHLDQNYPYGSPVRSSKNPFLSSNSRLPTDDSSHTVGSHSFTSGTHPPIVSSNSAFTLPNAVTPAAQAPLIRSVSEYPANVSPPAQSLQLPKSTSNPADLHLSIASASSHKNIFSGLDVFSNVFHGPSTTLRDREHDMRNRSFDHSTLAHYEAVKQQRLGVEPTARSFTLSSYKSRASGNSLINDRSSTTTPTFVNSEASSPVHKNKRRRRIYAALLSRVASELLDRLQLGDITKDGLIYSNAFTGDHAVTVLMGIIHTSDRNLALLVGRSLDAQKFIHDVTYDHRLRDSHREIYQLQGTGYRPFLRANDNASINNKNHHKELEDNESGTRISPSTLGDTSFPNGIFTLLTHCYSPTCAKDHPCYSISCPRRLEQQHRLFAKMRANTEQSSSLAFDDKEQKLWIHSVPQEIAYSVSDRERKRQEVICEVIYTERDFVKDLEYLRDYWIKPLWASSCIPERKKEKFIRTVFLNALEVQAVNSKLAEALTKRQNYKPIVDNIADIFLEHVPKFEPFIRYGAGQLYGKYEFEKEKSSNPAFAKFVSDVERLKESRKLELNGYLTKPTTRLARYPLLLEAVLKYTDEGNPDKQDIPKVINIVRGFLSRLNVESGKAENKFNLFHLNQQLVFKPGEHYDLHLLDANRQLIFKGPLKKRSAGSTSSESASDVTLFLFDHALLIVKPKTINKRELLKVFQRPIPLLLLQLFLVDDNGLRIPYSSKQQLAAVSKAANGKPPSRFYPFSLQLLGRRGYEITLYATTEVSRDKWLEHIDNQQTLLQHRNQWFESVTICSNFFVGDNKVNAIGVYDSGRRLLYGTDTGVYVSLRKANSPLQFKPVRALNIPNISQLEVIEEYSLLLLLSDKVLYSYPLEMIDADTTQAPKKARKVSGHTTFFRVGICLGKVLVCAVKSSVLSATIKVFEPVTNYSKTRNMPSLKKFLTVNQDPLRIVKELYIPTESTSVHFLKNKLCVGCTRGFEVVSLDNLETQSLLDPADTSLEFVEKKENVKPIAIYRMNGGEFLLCYSQFAFYVNRDGWRSRPTWFVVWEGSPQNFALSYPYILAFEPTFIEIRHVETSELIHVISGRNIRLLADGRGKLGDGGEIFYACDQRGENCETSVVCSLRLTSAAAHAKEQHVDK
binds | Rgf1ΔPH-GFP (protein, UniProt Q9Y7U6) MDYRHPNALGVNESSRAYEEIFGAPRKREPARTVSTPAFMEPAPVSKKPLPPPTRRLPRKPLPFRSTSLQPPSSQPPAPPTHQREASPVKNIEHSESFPSVFGTSNNHQIVPLTLKDGNDFGALYASLNTTPHFPQVSNHAPNNSNSPSLTWHTSSGDDSNQNPFFVRRQSQSSTSPVSDSVDENLLSAVSSVTESVETNLHLDQNYPYGSPVRSSKNPFLSSNSRLPTDDSSHTVGSHSFTSGTHPPIVSSNSAFTLPNAVTPAAQAPLIRSVSEYPANVSPPAQSLQLPKSTSNPADLHLSIASASSHKNIFSGLDVFSNVFHGPSTTLRDREHDMRNRSFDHSTLAHYEAVKQQRLGVEPTARSFTLSSYKSRASGNSLINDRSSTTTPTFVNSEASSPVHKNKRRRRIYAALLSRVASELLDRLQLGDITKDGLIYSNAFTGDHAVTVLMGIIHTSDRNLALLVGRSLDAQKFIHDVTYDHRLRDSHREIYQLQGTGYRPFLRANDNASINNKNHHKELEDNESGTRISPSTLGDTSFPNGIFTLLTHCYSPTCAKDHPCYSISCPRRLEQQHRLFAKMRANTEQSSSLAFDDKEQKLWIHSVPQEIAYSVSDRERKRQEVICEVIYTERDFVKDLEYLRDYWIKPLWASSCIPERKKEKFIRTVFLNALEVQAVNSKLAEALTKRQNYKPIVDNIADIFLEHVPKFEPFIRYGAGQLYGKYEFEKEKSSNPAFAKFVSDVERLKESRKLELNGYLTKPTTRLARYPYDSGRRLLYGTDTGVYVSLRKANSPLQFKPVRALNIPNISQLEVIEEYSLLLLLSDKVLYSYPLEMIDADTTQAPKKARKVSGHTTFFRVGICLGKVLVCAVKSSVLSATIKVFEPVTNYSKTRNMPSLKKFLTVNQDPLRIVKELYIPTESTSVHFLKNKLCVGCTRGFEVVSLDNLETQSLLDPADTSLEFVEKKENVKPIAIYRMNGGEFLLCYSQFAFYVNRDGWRSRPTWFVVWEGSPQNFALSYPYILAFEPTFIEIRHVETSELIHVISGRNIRLLADGRGKLGDGGEIFYACDQRGENCETSVVCSLRLTSAAAHAKEQHVDK

Reference: article PMC11602027
